Test results reported in the RNAGym collection of RNA variant scans (doi:10.7554/elife.90254).
The source gives no read counts; variants with many changes may rest on few reads.

B1: LINE1-mini (parent)
chain: GGCAGAGCUCAACACAGCGUGGCAAAGUGGCUGUGGCUAGACUGCC

Variants of: B1
Test: self-cleavage, relative activity (ratio to wild type); higher = more cleavage; in vitro, sequencing; the parent is a self-cleaving ribozyme
Variant G5C A12C C15U G17C A24C has a self-cleavage of 0.03. For G5C A11U A12C A14G U20G C31A, the self-cleavage was 0.02. Variant G5C A16G A26U has a self-cleavage of 0.02. G5C A25G G33U A39U showed a self-cleavage of 0.04. Work on G5C A14G U43A yielded a self-cleavage of 0.01. G5A G7A G35U A41U gave a self-cleavage of 0.11. In the case of G5A G19A C45U, the self-cleavage is reported as 0.09. G5A U32A C37A gave a self-cleavage of 0.03. G5C A12U C23U A24G showed a self-cleavage of 0.01. Work on G5A G7A A12U G40A yielded a self-cleavage of 0.11. With G5C A16G G21U A25G the self-cleavage was 0.03. In the case of G5A G30U G40A, the self-cleavage is reported as 0.03. With G5A U9A A12U C15U U34A the self-cleavage was 0.13. G5C A11C A25C gave a self-cleavage of 0. G5A G22U G30U U38C C45G gave a self-cleavage of 0.14. G5A G22A A24U gave a self-cleavage of 0.1. G5A G22C G27A G30U U38A G44U gave a self-cleavage of 0.02. G5C A6U G44C gave a self-cleavage of 0.04. G5C A16U U20C G22C gave a self-cleavage of 0.01. In the case of G5A U9A G19C U32G, the self-cleavage is reported as 0.01. Variant G5C A6U C8A G21U G35A C37U has a self-cleavage of 0.06. In the case of G5C A12G G21U A26G C46A, the self-cleavage is reported as 0.02. G5A G7U G27U gave a self-cleavage of 0.28. Work on G5C A12U C13A A39G C46U yielded a self-cleavage of 0.08. G5A G27A U38G showed a self-cleavage of 0.02. G5A G7C C37A G40U gave a self-cleavage of 0.2. G5A G21A G22C A24U G33C C42A showed a self-cleavage of 0.05. Work on G5A G29U C31A G35U yielded a self-cleavage of 0.05. In the case of G5A U9G A39U G40C, the self-cleavage is reported as 0.03. For G5A G7A G44U, the self-cleavage was 0.53. Variant G5A G7A C18A C31U has a self-cleavage of 0.06. Variant G5C A16U G29A C31U C42U has a self-cleavage of 0.02. G5C A12G G17C A39G showed a self-cleavage of 0.01. G5C A11U U34G showed a self-cleavage of 0. With G5A U28A U43C the self-cleavage was 0.04. In the case of G5A C18G C23U, the self-cleavage is reported as 0.06. G5C A14C C18U showed a self-cleavage of 0.03. Variant G5A C23U G29U has a self-cleavage of 0.31. Work on G5C A6C U9G C10U G35U U43C yielded a self-cleavage of 0.02. In the case of G5C A12U G19A A26U C42U, the self-cleavage is reported as 0. Variant G5C A12C C23U A26G G35C has a self-cleavage of 0.01. With G5A U9G G27U the self-cleavage was 0.09. G5A U9G C15U gave a self-cleavage of 0.08. Variant G5A G36U A41G has a self-cleavage of 0.07. In the case of G5C A6U G35U, the self-cleavage is reported as 0.02. For G5A G33U C42G U43C, the self-cleavage was 0.02. With G5A G17C G30A C31U G40U C42A C46A the self-cleavage was 0.04. Work on G5C A25U A26C G27A yielded a self-cleavage of 0.05. Work on G5C A11U G36C yielded a self-cleavage of 0.04. G5C A6G A12U G21U U38A gave a self-cleavage of 0. In the case of G5C A24U U32G G33A U43C, the self-cleavage is reported as 0.03. G5A G33C G40A G44C gave a self-cleavage of 0.28. With G5C A16C C31A the self-cleavage was 0.01. With G5C A6G C23U A41U the self-cleavage was 0.07. Variant G5C A11U C15G G19C G27U has a self-cleavage of 0.01. For G5A G22C U34C G35U C37A, the self-cleavage was 0.07. Variant G5A G17A C46U has a self-cleavage of 0.17. Work on G5A G7A G30A C31U U38C yielded a self-cleavage of 0.18. With G5C A25G U34G G35U the self-cleavage was 0.35. With G5A G36U A39U C46G the self-cleavage was 0.04. Work on G5C A14G G19C U43A yielded a self-cleavage of 0.02. In the case of G5A G22U C23U A26G, the self-cleavage is reported as 0.58. G5C A24G G35U gave a self-cleavage of 0.09. For G5A G29A U32A A39G, the self-cleavage was 0.04. G5A U28G G30C U32C C42U showed a self-cleavage of 0.02. Variant G5A G7A G29A has a self-cleavage of 0.22. For G5A C23U G27U C45G, the self-cleavage was 0.14. Work on G5A U28C U34A G36U C46G yielded a self-cleavage of 0.08. With G5A G19A G22C the self-cleavage was 0.08. G5C A12G U28A showed a self-cleavage of 0.01. Variant G5A G17U G19U G40U has a self-cleavage of 0.04. With G5C A12C G17A the self-cleavage was 0.03. For G5C A11C A24C, the self-cleavage was 0. Work on G5A U9G A16U U20C G36C yielded a self-cleavage of 0.06. In the case of G5A C37A G40C, the self-cleavage is reported as 0.04. G5A C18U G29A U34C C45A gave a self-cleavage of 0.04. Variant G5A C18U G29U G33C has a self-cleavage of 0.02. Variant G5A C18U G19A U20A has a self-cleavage of 0.13. G5A U20C G30U G44A gave a self-cleavage of 0.05. G5C A16C G36A C45U showed a self-cleavage of 0.03. In the case of G5C A6C C10A A16U C18A A41C, the self-cleavage is reported as 0.03. For G5C A12U C18A U20G C31A, the self-cleavage was 0.02. G5A U32C G36A gave a self-cleavage of 0.05. G5A U20C G35C A39G gave a self-cleavage of 0.02. Work on G5A G19U G22U yielded a self-cleavage of 0.15. Work on G5A G17A G33U C46U yielded a self-cleavage of 0.02. With G5A G27C G30C the self-cleavage was 0.1. G5A U20A A25U U28C C46A gave a self-cleavage of 0.07. G5A G33C U34A U43C C46G showed a self-cleavage of 0.04. Variant G5A U9G C13G A24C C37A G40U A41U has a self-cleavage of 0.08. Variant G5C A11G G19A G21C G27U C31U U38G has a self-cleavage of 0. With G5C A12C C37U C42U the self-cleavage was 0. For G5A G36U G44A, the self-cleavage was 0.09. In the case of G5A U9G U20C U38C C45U, the self-cleavage is reported as 0.02. Variant G5C A16C G21U has a self-cleavage of 0.02. With G5A C18U A25C the self-cleavage was 0.17. Variant G5A G17A G40U has a self-cleavage of 0.06. For G5C A12G G17C U20C U38A, the self-cleavage was 0.07. With G5A G7U C8G U20A the self-cleavage was 0.15. Variant G5A G7A C45U has a self-cleavage of 0.31. With G5A G17A G36U U38G C42A the self-cleavage was 0.01. For G5A U38A U43C, the self-cleavage was 0.05. Variant G5A G27C G29U C45G has a self-cleavage of 0.03. In the case of G5A G7A G17A U28C, the self-cleavage is reported as 0.24. Work on G5C A14C G17U U34C U38G U43A C45G yielded a self-cleavage of 0.03. G5A G21A U34C gave a self-cleavage of 0.03. G5A G17A G30U C31U gave a self-cleavage of 0.12. Work on G5A G22C A26G G30U yielded a self-cleavage of 0.02. Variant G5A G7U A12G A24U A39C A41C has a self-cleavage of 0.07. In the case of G5C A14U G35C, the self-cleavage is reported as 0.05. G5A C23A U34A showed a self-cleavage of 0.05. Work on G5C A6G U9C G29U yielded a self-cleavage of 0.05. With G5C A6U C15A C45G the self-cleavage was 0.05. With G5A G21A G30U the self-cleavage was 0.21. Work on G5A G33C A41C yielded a self-cleavage of 0.03. With G5A G36A C46G the self-cleavage was 0.04. Work on G5A G19C G40C yielded a self-cleavage of 0.07. In the case of G5A C23G G33U, the self-cleavage is reported as 0.13. Work on G5A U20A C46U yielded a self-cleavage of 0.09. Variant G5C A24U G33U C37A has a self-cleavage of 0.12. Variant G5C A24G U28C G30A G33C has a self-cleavage of 0.05. For G5C A24G G27C, the self-cleavage was 0.28. G5A G19C C37A C42U gave a self-cleavage of 0.03. Work on G5C A16U A39G G40A yielded a self-cleavage of 0.04. G5A C18G G36A C42U C45A showed a self-cleavage of 0.02. Work on G5A G35U G36C yielded a self-cleavage of 0.14. For G5A G30C G44U, the self-cleavage was 0.08. G5C A14G C15A C23G showed a self-cleavage of 0.03. In the case of G5A U9A U20C G30U G35A C37U U43A, the self-cleavage is reported as 0. Variant G5C A6G G17U C46U has a self-cleavage of 0.06. Work on G5C A25G G40U yielded a self-cleavage of 0.35. With G5C A14C G35U U43A C45A the self-cleavage was 0.01. G5C A6U U9A G17U G29U gave a self-cleavage of 0.05. In the case of G5C A6U U20C C31G A41C, the self-cleavage is reported as 0.02. In the case of G5C A14G C42U, the self-cleavage is reported as 0.03. Variant G5A G27U C46U has a self-cleavage of 0.03. In the case of G5C A12G G22C C23G, the self-cleavage is reported as 0. G5A C31A U34C G44C gave a self-cleavage of 0. For G5A G19U C23A G27C C42A C46A, the self-cleavage was 0.02. G5A G7U U38A G44U showed a self-cleavage of 0.21. With G5A U9A A11C G29C the self-cleavage was 0.05. With G5A G27A G36A A41C the self-cleavage was 0.04. Work on G5A U32G C45A yielded a self-cleavage of 0.03. For G5C A12U G36U, the self-cleavage was 0.09. Work on G5A U20A G35C yielded a self-cleavage of 0.02. G5C A12C C13A gave a self-cleavage of 0.02. Work on G5A G19C G30C U38C yielded a self-cleavage of 0.05. With G5C A14G A16C C42A the self-cleavage was 0.01. With G5C A25U G27C C45A the self-cleavage was 0.06. G5A G7C G21U C45A showed a self-cleavage of 0.03. G5A C23U G40U showed a self-cleavage of 0.16. For G5A G7A C10A A14C C46A, the self-cleavage was 0.63. G5C A6C A16G U20A gave a self-cleavage of 0.05. Work on G5C A24U C45A yielded a self-cleavage of 0.02. With G5A G17C G40U the self-cleavage was 0. G5C A26C C46G showed a self-cleavage of 0.06. For G5A U38G A41U, the self-cleavage was 0.04. For G5A G21A G22A C45G, the self-cleavage was 0.07. In the case of G5A G30U G44U, the self-cleavage is reported as 0.12. Variant G5A G7A U9G A16C C18G U43C has a self-cleavage of 0.01. With G5C A11G A39G the self-cleavage was 0.02. G5C A11C C42U C46U gave a self-cleavage of 0. With G5C A14U C15A C45U the self-cleavage was 0.05. G5A G33A C45G showed a self-cleavage of 0.09. G5A U9G A25C G27C G35A gave a self-cleavage of 0.03. G5C A6C C8U C10U A11C C18A showed a self-cleavage of 0.03. In the case of G5C A6G G27C G29U, the self-cleavage is reported as 0.02.
